Some of the results follow. The list includes weakly bound sequences.

This note sets out measurements from paper PMC12820563.

The target in this experiment is T1, MBP-FoxP3dN (UniProt Q99JB6).
T1 sequence: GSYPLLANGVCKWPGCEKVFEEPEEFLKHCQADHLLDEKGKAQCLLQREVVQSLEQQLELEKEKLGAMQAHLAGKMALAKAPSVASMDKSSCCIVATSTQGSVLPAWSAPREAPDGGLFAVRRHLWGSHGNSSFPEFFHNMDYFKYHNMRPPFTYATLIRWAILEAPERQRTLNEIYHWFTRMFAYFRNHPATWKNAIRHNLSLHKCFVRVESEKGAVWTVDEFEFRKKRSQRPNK
Put plainly: PD-seq (MBP pull-down with sequencing). The note with it: 20 mM Tris-HCl pH 7.5, 100 mM NaCl, 1.5 mM MgCl2, 0.4 uM protein, 0.1 uM dsDNA library, 30 min, room temperature, amylose pull-down; high values mean tight binding; double strand, one strand shown.
On to “GATGATTGTTCTCCCAGCTGATGAATTTATGAGTTCGAGTAAACAAATTTTCCTAATCTTTCTGTTCAAGCGCCATCTAC”, for which the binding signal (RPM ratio (pull-down/input)) was determined as 3.06.
Then “GATGATTGTTCTCCCAGCTGATGAATTTATAAAATCGAGTAAACAAATTTTCCTAATCTTTCTGTTCAAGCGCCATCTAC”, with 0.293.
“GATGATTGTTCTCCCAGCTGATGAATTCCCGTGGTCGAGTAAACAAATTTTCCTAATCTTTCTGTTCAAGCGCCATCTAC”: the binding signal (RPM ratio (pull-down/input)) worked out at 0.283.
The result for “GATGATTGTTCTCCCAGCTGATGAATTATACGATTCGAGTAAACAAATTTTCCTAATCTTTCTGTTCAAGCGCCATCTAC” reads 0.442; that for “GATGATTGTTCTCCCAGCTGATGAATTTCCTTGGTCGAGTAAACAAATTTTCCTAATCTTTCTGTTCAAGCGCCATCTAC”, 0.239; that for “GATGATTGTTCTCCCAGCTGATGAATTATATAACTCGAGTAAACAAATTTTCCTAATCTTTCTGTTCAAGCGCCATCTAC”, 0.431.
On to “GATGATTGTTCTCCCAGCTGATGAATTCCGAGATTCGAGTAAACAAATTTTCCTAATCTTTCTGTTCAAGCGCCATCTAC”, for which the binding signal (RPM ratio (pull-down/input)) worked out at 0.366.
Then “GATGATTGTTCTCCCAGCTGATGAATTACTCAAGTCGAGTAAACAAATTTTCCTAATCTTTCTGTTCAAGCGCCATCTAC”, with 0.263.
Then “GATGATTGTTCTCCCAGCTGATGAATTTGCCTTATCGAGTAAACAAATTTTCCTAATCTTTCTGTTCAAGCGCCATCTAC”, with 1.39; and “GATGATTGTTCTCCCAGCTGATGAATTCGAGCCGTCGAGTAAACAAATTTTCCTAATCTTTCTGTTCAAGCGCCATCTAC”, with 0.378; and “GATGATTGTTCTCCCAGCTGATGAATTGGGGGCCTCGAGTAAACAAATTTTCCTAATCTTTCTGTTCAAGCGCCATCTAC”, with 0.587.
As for “GATGATTGTTCTCCCAGCTGATGAATTTGATTTGTCGAGTAAACAAATTTTCCTAATCTTTCTGTTCAAGCGCCATCTAC”, the binding signal (RPM ratio (pull-down/input)) was determined as 4.76.
Then “GATGATTGTTCTCCCAGCTGATGAATTGTCTCGGTCGAGTAAACAAATTTTCCTAATCTTTCTGTTCAAGCGCCATCTAC”, with 0.31; and “GATGATTGTTCTCCCAGCTGATGAATTTTCTGCTTCGAGTAAACAAATTTTCCTAATCTTTCTGTTCAAGCGCCATCTAC”, with 0.277.
As for “GATGATTGTTCTCCCAGCTGATGAATTAATTGTCTCGAGTAAACAAATTTTCCTAATCTTTCTGTTCAAGCGCCATCTAC”, the binding signal (RPM ratio (pull-down/input)) was found to be 3.16.
In the case of “GATGATTGTTCTCCCAGCTGATGAATTAGGTCTATCGAGTAAACAAATTTTCCTAATCTTTCTGTTCAAGCGCCATCTAC”, the binding signal (RPM ratio (pull-down/input)) was 0.488.
With “GATGATTGTTCTCCCAGCTGATGAATTCAATCACTCGAGTAAACAAATTTTCCTAATCTTTCTGTTCAAGCGCCATCTAC”, the binding signal (RPM ratio (pull-down/input)) came to 0.553.
Then “GATGATTGTTCTCCCAGCTGATGAATTCAAGCGGTCGAGTAAACAAATTTTCCTAATCTTTCTGTTCAAGCGCCATCTAC”, with 0.398.
For the sequence “GATGATTGTTCTCCCAGCTGATGAATTTAGGTCTTCGAGTAAACAAATTTTCCTAATCTTTCTGTTCAAGCGCCATCTAC”, the binding signal (RPM ratio (pull-down/input)) was 0.709.
The result for “GATGATTGTTCTCCCAGCTGATGAATTAATAGTCTCGAGTAAACAAATTTTCCTAATCTTTCTGTTCAAGCGCCATCTAC” reads 0.677; that for “GATGATTGTTCTCCCAGCTGATGAATTGTACTACTCGAGTAAACAAATTTTCCTAATCTTTCTGTTCAAGCGCCATCTAC”, 0.546.
The result for “GATGATTGTTCTCCCAGCTGATGAATTAATGTGATCGAGTAAACAAATTTTCCTAATCTTTCTGTTCAAGCGCCATCTAC” reads 0.811; that for “GATGATTGTTCTCCCAGCTGATGAATTGCTTTAATCGAGTAAACAAATTTTCCTAATCTTTCTGTTCAAGCGCCATCTAC”, 0.464.
On to “GATGATTGTTCTCCCAGCTGATGAATTGCTGAGGTCGAGTAAACAAATTTTCCTAATCTTTCTGTTCAAGCGCCATCTAC”, for which the binding signal (RPM ratio (pull-down/input)) is 0.4.
The result for “GATGATTGTTCTCCCAGCTGATGAATTAGTTTCTTCGAGTAAACAAATTTTCCTAATCTTTCTGTTCAAGCGCCATCTAC” reads 2.72; that for “GATGATTGTTCTCCCAGCTGATGAATTGGTCGCGTCGAGTAAACAAATTTTCCTAATCTTTCTGTTCAAGCGCCATCTAC”, 0.614; that for “GATGATTGTTCTCCCAGCTGATGAATTATCAATGTCGAGTAAACAAATTTTCCTAATCTTTCTGTTCAAGCGCCATCTAC”, 0.43.
For the sequence “GATGATTGTTCTCCCAGCTGATGAATTGTTCTCCTCGAGTAAACAAATTTTCCTAATCTTTCTGTTCAAGCGCCATCTAC”, the binding signal (RPM ratio (pull-down/input)) came out at 0.415.
In the case of “GATGATTGTTCTCCCAGCTGATGAATTTATTATGTCGAGTAAACAAATTTTCCTAATCTTTCTGTTCAAGCGCCATCTAC”, the binding signal (RPM ratio (pull-down/input)) was determined as 5.83.
For the sequence “GATGATTGTTCTCCCAGCTGATGAATTCTCTGTATCGAGTAAACAAATTTTCCTAATCTTTCTGTTCAAGCGCCATCTAC”, the binding signal (RPM ratio (pull-down/input)) came out at 0.441.
Consider “GATGATTGTTCTCCCAGCTGATGAATTGTAGGGATCGAGTAAACAAATTTTCCTAATCTTTCTGTTCAAGCGCCATCTAC”, for which the binding signal (RPM ratio (pull-down/input)) came out at 0.456.
“GATGATTGTTCTCCCAGCTGATGAATTGTCGGCATCGAGTAAACAAATTTTCCTAATCTTTCTGTTCAAGCGCCATCTAC”: the binding signal (RPM ratio (pull-down/input)) came to 0.836.
For the sequence “GATGATTGTTCTCCCAGCTGATGAATTAAGGTAGTCGAGTAAACAAATTTTCCTAATCTTTCTGTTCAAGCGCCATCTAC”, the binding signal (RPM ratio (pull-down/input)) amounted to 0.394.
Then “GATGATTGTTCTCCCAGCTGATGAATTGTGCCTTTCGAGTAAACAAATTTTCCTAATCTTTCTGTTCAAGCGCCATCTAC”, with 6.1; and “GATGATTGTTCTCCCAGCTGATGAATTTTTCGAATCGAGTAAACAAATTTTCCTAATCTTTCTGTTCAAGCGCCATCTAC”, with 0.252; and “GATGATTGTTCTCCCAGCTGATGAATTGACGGAGTCGAGTAAACAAATTTTCCTAATCTTTCTGTTCAAGCGCCATCTAC”, with 0.26.
Then “GATGATTGTTCTCCCAGCTGATGAATTGACAGGTTCGAGTAAACAAATTTTCCTAATCTTTCTGTTCAAGCGCCATCTAC”, with 0.414; and “GATGATTGTTCTCCCAGCTGATGAATTCGACCGTTCGAGTAAACAAATTTTCCTAATCTTTCTGTTCAAGCGCCATCTAC”, with 0.299.
Then “GATGATTGTTCTCCCAGCTGATGAATTAGTCAAATCGAGTAAACAAATTTTCCTAATCTTTCTGTTCAAGCGCCATCTAC”, with 0.309; and “GATGATTGTTCTCCCAGCTGATGAATTCAATTCCTCGAGTAAACAAATTTTCCTAATCTTTCTGTTCAAGCGCCATCTAC”, with 0.665; and “GATGATTGTTCTCCCAGCTGATGAATTGACATGGTCGAGTAAACAAATTTTCCTAATCTTTCTGTTCAAGCGCCATCTAC”, with 0.404.
With “GATGATTGTTCTCCCAGCTGATGAATTACTTTTATCGAGTAAACAAATTTTCCTAATCTTTCTGTTCAAGCGCCATCTAC”, the binding signal (RPM ratio (pull-down/input)) is 0.44.
The result for “GATGATTGTTCTCCCAGCTGATGAATTCGTGCCCTCGAGTAAACAAATTTTCCTAATCTTTCTGTTCAAGCGCCATCTAC” reads 0.554; that for “GATGATTGTTCTCCCAGCTGATGAATTAGCGTGATCGAGTAAACAAATTTTCCTAATCTTTCTGTTCAAGCGCCATCTAC”, 1.16; that for “GATGATTGTTCTCCCAGCTGATGAATTTTCTTAGTCGAGTAAACAAATTTTCCTAATCTTTCTGTTCAAGCGCCATCTAC”, 0.314.
Regarding “GATGATTGTTCTCCCAGCTGATGAATTTCGCGTATCGAGTAAACAAATTTTCCTAATCTTTCTGTTCAAGCGCCATCTAC”, the binding signal (RPM ratio (pull-down/input)) worked out at 1.43.
Regarding “GATGATTGTTCTCCCAGCTGATGAATTTAAGTTGTCGAGTAAACAAATTTTCCTAATCTTTCTGTTCAAGCGCCATCTAC”, the binding signal (RPM ratio (pull-down/input)) was determined as 1.12.
The result for “GATGATTGTTCTCCCAGCTGATGAATTTGCGAAATCGAGTAAACAAATTTTCCTAATCTTTCTGTTCAAGCGCCATCTAC” reads 0.546; that for “GATGATTGTTCTCCCAGCTGATGAATTGTAACGATCGAGTAAACAAATTTTCCTAATCTTTCTGTTCAAGCGCCATCTAC”, 0.496; that for “GATGATTGTTCTCCCAGCTGATGAATTAGGAAGTTCGAGTAAACAAATTTTCCTAATCTTTCTGTTCAAGCGCCATCTAC”, 0.288.
The result for “GATGATTGTTCTCCCAGCTGATGAATTATGCCCCTCGAGTAAACAAATTTTCCTAATCTTTCTGTTCAAGCGCCATCTAC” reads 2.3; that for “GATGATTGTTCTCCCAGCTGATGAATTCTCCCCATCGAGTAAACAAATTTTCCTAATCTTTCTGTTCAAGCGCCATCTAC”, 0.26.
The result for “GATGATTGTTCTCCCAGCTGATGAATTACATATATCGAGTAAACAAATTTTCCTAATCTTTCTGTTCAAGCGCCATCTAC” reads 0.842; that for “GATGATTGTTCTCCCAGCTGATGAATTTGTAGTATCGAGTAAACAAATTTTCCTAATCTTTCTGTTCAAGCGCCATCTAC”, 5.7; that for “GATGATTGTTCTCCCAGCTGATGAATTTAACAGGTCGAGTAAACAAATTTTCCTAATCTTTCTGTTCAAGCGCCATCTAC”, 0.231.
Consider “GATGATTGTTCTCCCAGCTGATGAATTAGGTAGCTCGAGTAAACAAATTTTCCTAATCTTTCTGTTCAAGCGCCATCTAC”, for which the binding signal (RPM ratio (pull-down/input)) was 0.601.
As to “GATGATTGTTCTCCCAGCTGATGAATTGTCCGTTTCGAGTAAACAAATTTTCCTAATCTTTCTGTTCAAGCGCCATCTAC”, the binding signal (RPM ratio (pull-down/input)) turned out to be 0.359.
Then “GATGATTGTTCTCCCAGCTGATGAATTGATTCTATCGAGTAAACAAATTTTCCTAATCTTTCTGTTCAAGCGCCATCTAC”, with 0.401; and “GATGATTGTTCTCCCAGCTGATGAATTAGTCCATTCGAGTAAACAAATTTTCCTAATCTTTCTGTTCAAGCGCCATCTAC”, with 0.564; and “GATGATTGTTCTCCCAGCTGATGAATTCTTCCTCTCGAGTAAACAAATTTTCCTAATCTTTCTGTTCAAGCGCCATCTAC”, with 0.204.
For the sequence “GATGATTGTTCTCCCAGCTGATGAATTCGCGCTGTCGAGTAAACAAATTTTCCTAATCTTTCTGTTCAAGCGCCATCTAC”, the binding signal (RPM ratio (pull-down/input)) is 0.479.
For the sequence “GATGATTGTTCTCCCAGCTGATGAATTCTGCAAGTCGAGTAAACAAATTTTCCTAATCTTTCTGTTCAAGCGCCATCTAC”, the binding signal (RPM ratio (pull-down/input)) is 2.6.
Turning to “GATGATTGTTCTCCCAGCTGATGAATTTCATGTATCGAGTAAACAAATTTTCCTAATCTTTCTGTTCAAGCGCCATCTAC”, the binding signal (RPM ratio (pull-down/input)) is 1.05.
